± gives the standard deviation of the averaged measurements. The list shows a part of the results.
test system: PfAP2-EXP AP2 domain (GST-tagged); experiment: gcPBM binding intensity (ln(normalized median fluorescence intensity)); higher = stronger DNA binding
Method in brief: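 DNA-binding domains from P. falciparum, fused to GST and produced in E. coli, were put on an Agilent 4 × 180k double-stranded probe array for 1 h in 1× PBS holding 1% milk, 0.2 mg/ml BSA, 0.5% salmon testes DNA and 0.03% Triton X-100. Probes were primer-extended, 36 bp long and drawn from intergenic genomic regions, with negative controls included. After Alexa488 anti-GST antibody detection and a 488 nm scan, binding intensity was set as the highest Masliner-normalised natural-log median intensity across replicate spots of either probe orientation.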

| Sequence | gcPBM binding intensity (ln) |
| --- | --- |
| GGAATTATATGAAATAAACACACATATGTAATATTA [CACACA_site8586] | 8.51 ± 0.39 |
| TTTTTTTTTTTTTTGGTGCGTTTATATATAAATATA | 8.39 ± 0.28 |
| TACATCGACCTATGTACATGCAAATTATTTTTATTT [TGCATGCA_site182] | 8.86 ± 0.28 |
| AAAATCTAATATAATGCACACATAAAAAAAAAATCA [CACACA_site8871] | 8.79 ± 0.13 |
| CTTTTAATATGTGTAGTGCATTTTTTTTTTTTTTTT [GTGCAC_site9727] | 8.69 ± 0.042 |
| AAAAAAAAAAAAAACACACACAACACCCATACCTTA [CACACA_site3621] | 8.63 ± 0.36 |
| GTCCTTCATCATATTTAACACACAGAGAAAAAGCGG [CACACA_site7979] | 8.89 ± 0.43 |
| AATAATTGTTAAAGGTGTACAATACGTATGTAAGAA [XGTACX_site1328] | 9.12 ± 0.33 |
| AACAGATATATATGTAGTACATGTTCTAGATATTTT [XGTACX_site1208] | 8.51 ± 0.36 |
| AATATAAACATAGATAGATAAATAAATAAATAAACA [GTGCAC_negctrl_site567] | 8.68 ± 0.47 |
| AAAAAAAATAAAAATAAAAATAAAAATAAAAATAAA [GTGCAC_negctrl_site437] | 8.38 ± 0.35 |
| TATCATTTTGTATATAGTACATATATAAAATCGTTA [XGTACX_site3875] | 8.35 ± 0.29 |
| GGAATATTTATACATACACACATATATTTATTTATA [CACACA_site6883] | 8.52 ± 0.33 |
| AGTCATTAAATATAATGTACATGGAAAAACAGCTGA [XGTACX_site7944] | 9.01 ± 0.42 |
| ATAAAAATAACATATAAACACACATATATATATATA [CACACA_site9267] | 10 ± 0.19 |
| CAAGCACCCAGACACACACACACACCCACACCCACA [CACACA_site369] | 8.36 ± 0.3 |
| ATGTAGACATAATGGGGTACAAAAAAAAAAAAAAAA [XGTACX_site881] | 8.34 ± 0.4 |
| TTTTGTAGCAAAAAATAGGAAAAAAAAAAATTAAAT [GTGCAC_negctrl_site8] | 8.53 ± 0.4 |
| ATATAATTACCATATGGTACACACATATATATATGT [XGTACX_site7393] | 9.2 ± 0.37 |
| ATATTACCCATATATGCACACATTGTAGTTATTTAT [CACACA_site2636] | 9.01 ± 0.36 |
| TTAAGATACAAAAAAGTGCATATTTTTTAACAAAAA | 8.54 ± 0.32 |
| GATATATAAATAGATACACACATACATACATACATA [CACACA_site6260] | 8.75 ± 0.62 |
| ATATCGTGTGCATTAACACACATTTATTTGAATAAA [CACACA_site7162] | 8.47 ± 0.28 |

| Sequence | gcPBM binding intensity (ln) |
| --- | --- |
| CACATACCCATACAAACACACATTATATATATATAT [CACACA_site4965] | 9.96 ± 0.23 |
| AAAAAAAAAAAAAAAACACACATAAATAGCTCAAAT [CACACA_site3973] | 8.69 ± 0.2 |
| TACGATTAAAAAAAATGTACAGATTTTTATAGAATA [XGTACX_site6561] | 8.35 ± 0.34 |
| GACAAATTATTGTGTACACAATATTATTATATATAC [CACACA_site6020] | 8.87 ± 0.16 |
| ACAAATAAAAATATTACACACACTATTCTAGTGATA [CACACA_site6812] | 7.99 ± 0.28 |
| TAAATATATATAATTACACACTTTTCTATAATATGA [CACACA_site711] | 8.22 ± 0.39 |
| CTTATGTTTTTTAAGTGTACATATTATACGTATTAT [XGTACX_site1176] | 8.86 ± 0.28 |
| TTAAGATATATAAAGAGTACACATAAGAGTAATGCT [XGTACX_site58] | 8.52 ± 0.4 |
| TATAATACATTATATTGTACTATATTATAATAAATT [XGTACX_site5934] | 8.12 ± 0.43 |
| TTTTTTTCTTTATTAGCACACATAATATTATATATG [CACACA_site8841] | 8.84 ± 0.28 |
| TATATCATTATATAAACACACAATATGTTTTTTATA [CACACA_site3781] | 8.09 ± 0.36 |
| AAAATGAACAGACACACACACATATTTATATTTATA [CACACA_site7182] | 8.57 ± 0.45 |
| TATTAATCTAATTCATAAAAAATGATCTATTTTGTT [CACACA_negctrl_site1035] | 8.01 ± 0.49 |
| ACCTAAAAGGTATAATATATAAATAAAAAAAAAAAT [CACACA_negctrl_site134] | 8.4 ± 0.59 |
| TAGAATAATCTATAAACACACAAACACAACAAAAGA [CACACA_site7861] | 9.09 ± 0.35 |
| AACATTTGATAAGATACACACACAAGGAAAAAAATA [CACACA_site8004] | 8.91 ± 0.62 |
| TTATAAAAATAATATCGTACAAATGACATAGATGAA [XGTACX_site2570] | 8.76 ± 0.42 |
| AGATATTTTATAATTACACACATGAGGTTATTTGAA [CACACA_site1999] | 8.32 ± 0.39 |
| CATATACATAAACACACACACACATAAATAAATATA [CACACA_site4864] | 8.68 ± 0.54 |
| ACATAAAATTGTTAAAAAATTGTATAAATAATACAT [XGTACX_negctrl_site557] | 8.12 ± 0.18 |
| TATTATTTTTTAAATTGTACAATAAATTATAAAAGG [XGTACX_site1162] | 8.41 ± 0.39 |
| TATAGGTATATATAAGTGCAATATATATGTATATAC [GTGCAC_site9427] | 8.98 ± 0.092 |
| GAAAAGCAGATAAATGTGCACATATATGTTTGTATA | 8.92 ± 0.31 |

| Sequence | gcPBM binding intensity (ln) |
| --- | --- |
| CAGCTCTTAAAAATTACACACATATACTCATATATA [CACACA_site5757] | 8.26 ± 0.36 |
| GGTCTTTTCAACACACGTACATAAAAATATTATACA [XGTACX_site5360] | 8.92 ± 0.37 |
| TATATATTGATATGCACACCTATGTATTGATGTATA [CACACA_site1073] | 8.56 ± 0.35 |
| TAAACATATAGAGGGGTGCAAAGAATTGTAAAATTT | 9.03 ± 0.014 |
| AATAATAATAAATATACACACATCATACAATTAACA [CACACA_site3679] | 8.73 ± 0.46 |
| TATTTTTTTCTTACTACACACATATAGATGCTTTCC [CACACA_site7825] | 8.84 ± 0.41 |
| TAATATAATATATATACACACAAGAAATACAAAACG [CACACA_site1378] | 9.01 ± 0.61 |
| ACATAAATTTAATACACACACAAAGAAAAAAAAAAA [CACACA_site4088] | 8.59 ± 0.49 |
| ATATTATTATAATATACATATATATATATAATATAT [CACACA_negctrl_site480] | 8.19 ± 0.27 |
| TATATATATAATTAAAGTACATATAACCACAAAAAT [XGTACX_site7289] | 9.09 ± 0.4 |
| TTATAAATTATAGGTACACACAAAAAAAAAAAGAAA [CACACA_site1327] | 8.72 ± 0.49 |
| ATTTGTTACACTAAATGTACATACATACATATATAT [XGTACX_site6175] | 8.77 ± 0.33 |
| ATAAACATATCAATATGTACATATTTTTGTTTGTAT [XGTACX_site7018] | 8.46 ± 0.21 |
| TTATAATAGTTAAATGTACACACTAACTACATGGAA [CACACA_site9070] | 8.62 ± 0.32 |
| ATTTATCAATAAAATGCACACACTGTAATATTATTA [CACACA_site3976] | 8.52 ± 0.42 |
| AAACCACAAAATTTTTTATATATGACCAATACATAG [CACACA_negctrl_site277] | 8.54 ± 0.35 |
| TTCCATATAATTACATGTACACATTTTGAATAATAT [XGTACX_site3692] | 8.89 ± 0.33 |
| ACAGATATACATAAAAAAAAAATAATTTTACATATA [CACACA_negctrl_site929] | 8.2 ± 0.42 |
| ATATATATGTATGTATGTACATATTTGAATTTATTT [XGTACX_site8470] | 8.73 ± 0.64 |
| AGCACAGACGGACACACACACATATATATATATATA [CACACA_site4341] | 10.1 ± 0.35 |
| TTTGTTTTTTCTTTTTGTACATATACAAGATACGTA [XGTACX_site2309] | 8.85 ± 0.54 |
| ATGTATGTATAATATACACACTCACAAGCATTCAAA [CACACA_site4306] | 8.43 ± 0.4 |
| GTATATATTCATATGGAAAATAAAGGAGAAAACAAG [TGCATGCA_negctrl_site220] | 9.18 ± 0.44 |

| Sequence | gcPBM binding intensity (ln) |
| --- | --- |
| ACCCAACATATGTGTACACAGAAAATAAATATAATA [CACACA_site5901] | 9.11 ± 0.53 |
| GTGTTTTTTTTAGATTGTACATATATATATATATAT [XGTACX_site4562] | 10.3 ± 0.33 |
| TTTTGTAATTCTCTTCATATAATTTATATATATATA [CACACA_negctrl_site1825] | 9.73 ± 0.18 |
| ATGGTAGTGATTAAAAGTACACGTAATTGTAAAAAT [XGTACX_site387] | 8.79 ± 0.41 |
| ATATATATACATACATACCTATGTATATGTGTAATT [GTGCAC_negctrl_site50] | 8.5 |
| TAAACAACTTATAAATGTACACATATTTTAATTACC [XGTACX_site5409] | 8.46 ± 0.22 |
| TAAAAAAAAAAAAATACACACACACCGATATATATA [CACACA_site8498] | 8.66 ± 0.54 |
| AATAAAAACTAAACATGTACGCACATATATATATAT [XGTACX_site8096] | 9.97 ± 0.26 |
| TAAGTGCATGAGATATGTACATATATAAAATATATA [XGTACX_site3294] | 8.68 ± 0.33 |
| TCATAGTCTTAATGACTACACACCTAACTATGCATG [CACACA_site1839] | 8.36 ± 0.33 |
| ATTTTTTAAAAAGTAACACACACTCTTATAAATAAC [CACACA_site7668] | 8.62 ± 0.35 |
| AAAGTAAAAATATACTGTACAAATTTTTTCCCCTCT [XGTACX_site171] | 8.48 ± 0.49 |
| AAAGAAAGCACATACACACACAAAAAAAAAAAAGAA [CACACA_site776] | 8.58 ± 0.49 |
| GATGCACTTTAAAAATGTACTTATACCTTTAATTGT [XGTACX_site6395] | 8.38 ± 0.35 |
| AAACAAAAAAAAAAAAAAAAAAAAAAAAAAAAAAAA [GTGCAC_negctrl_site254] | 7.89 ± 0.28 |
| ATATTTATATACAAATGTACGCATATAATATATATA [XGTACX_site1232] | 8.54 ± 0.16 |
| AAAAAAATATTATAATATATATATATATATATATAT [GTGCAC_negctrl_site399] | 10.1 ± 0.28 |
| AGAGATTATAAAATATGTACTAAATATTAAATCTTA [XGTACX_site7050] | 8.17 ± 0.49 |
| AGGACTAATATTTGAACACACATATAATATATACAT [CACACA_site3998] | 8.48 ± 0.5 |
| ATAGAATCTGGTAGCTGTACGAGTCGTAGAGTGCAG [XGTACX_site2026] | 8.91 ± 0.38 |

Source: the supplement of paper PMC11417369
